# Assay results as given in PMC9911399, “Two distinct binding modes provide the RNA-binding protein RbFox with extraordinary sequence specificity”.
# Numbering of substitutions follows the chain as printed; changes in the protein carry UniProt numbers. The list shows a part of the results.
# T1: RBFOX1 RRM (Homo sapiens, UniProt Q9NWB1 109-208)
# T1 sequence: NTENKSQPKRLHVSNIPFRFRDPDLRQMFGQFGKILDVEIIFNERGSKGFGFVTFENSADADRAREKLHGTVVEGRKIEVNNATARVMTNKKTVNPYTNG
# B1: UGACUUC (DNA:RNA)
# RNA: GGGAGACCGGAAUUCAGAUUGUCCUGACUUCUUAAAUCCCGUCGUAGCCACCA
# DNA 1: CAATCTGAATTCCGGTCTCCC
# DNA 2: TGGTGGCTACGACGGGATT
# B2: AUUUUGC (DNA:RNA)
# RNA: B1 RNA with U25A, G26U, A27U, C28U, U30G
# DNA 1: CAATCTGAATTCCGGTCTCCC
# DNA 2: TGGTGGCTACGACGGGATT
# B3: GGUUGCG (DNA:RNA)
# RNA: B1 RNA with U25G, A27U, C28U, U29G, U30C, C31G
# DNA 1: CAATCTGAATTCCGGTCTCCC
# DNA 2: TGGTGGCTACGACGGGATT
# B4: UAGGCCC (DNA:RNA)
# RNA: B1 RNA with G26A, A27G, C28G, U29C, U30C
# DNA 1: CAATCTGAATTCCGGTCTCCC
# DNA 2: TGGTGGCTACGACGGGATT
# B5: CUCUACC (DNA:RNA)
# RNA: B1 RNA with U25C, G26U, A27C, C28U, U29A, U30C
# DNA 1: CAATCTGAATTCCGGTCTCCC
# DNA 2: TGGTGGCTACGACGGGATT
# B6: CUUGAUG (DNA:RNA)
# RNA: B1 RNA with U25C, G26U, A27U, C28G, U29A, C31G
# DNA 1: CAATCTGAATTCCGGTCTCCC
# DNA 2: TGGTGGCTACGACGGGATT
# B7: UUACUAG (DNA:RNA)
# RNA: B1 RNA with G26U, U30A, C31G
# DNA 1: CAATCTGAATTCCGGTCTCCC
# DNA 2: TGGTGGCTACGACGGGATT
# B8: CGAAGCA (DNA:RNA)
# RNA: B1 RNA with U25C, C28A, U29G, U30C, C31A
# DNA 1: CAATCTGAATTCCGGTCTCCC
# DNA 2: TGGTGGCTACGACGGGATT
# B9: AUCCAUA (DNA:RNA)
# RNA: B1 RNA with U25A, G26U, A27C, U29A, C31A
# DNA 1: CAATCTGAATTCCGGTCTCCC
# DNA 2: TGGTGGCTACGACGGGATT
# B10: CAGGCGC (DNA:RNA)
# RNA: B1 RNA with U25C, G26A, A27G, C28G, U29C, U30G
# DNA 1: CAATCTGAATTCCGGTCTCCC
# DNA 2: TGGTGGCTACGACGGGATT
# B11: UAAAUGA (DNA:RNA)
# RNA: B1 RNA with G26A, C28A, U30G, C31A
# DNA 1: CAATCTGAATTCCGGTCTCCC
# DNA 2: TGGTGGCTACGACGGGATT
# B12: AACCAUC (DNA:RNA)
# RNA: B1 RNA with U25A, G26A, A27C, U29A
# DNA 1: CAATCTGAATTCCGGTCTCCC
# DNA 2: TGGTGGCTACGACGGGATT
# B13: UGAACAC (DNA:RNA)
# RNA: B1 RNA with C28A, U29C, U30A
# DNA 1: CAATCTGAATTCCGGTCTCCC
# DNA 2: TGGTGGCTACGACGGGATT
# B14: ACCCAAU (DNA:RNA)
# RNA: B1 RNA with U25A, G26C, A27C, U29A, U30A, C31U
# DNA 1: CAATCTGAATTCCGGTCTCCC
# DNA 2: TGGTGGCTACGACGGGATT
# B15: AUUUGGC (DNA:RNA)
# RNA: B1 RNA with U25A, G26U, A27U, C28U, U29G, U30G
# DNA 1: CAATCTGAATTCCGGTCTCCC
# DNA 2: TGGTGGCTACGACGGGATT
# B16: GUCAGCG (DNA:RNA)
# RNA: GGGAGACCGGAAUUCAGAUUGUCCGUCAGCGUUAAAUCCCGUCGUAGCCACCA
# DNA 1: CAATCTGAATTCCGGTCTCCC
# DNA 2: TGGTGGCTACGACGGGATT
# B17: CGCCCUG (DNA:RNA)
# RNA: B1 RNA with U25C, A27C, U29C, C31G
# DNA 1: CAATCTGAATTCCGGTCTCCC
# DNA 2: TGGTGGCTACGACGGGATT
# B18: CAUUUGA (DNA:RNA)
# RNA: B1 RNA with U25C, G26A, A27U, C28U, U30G, C31A
# DNA 1: CAATCTGAATTCCGGTCTCCC
# DNA 2: TGGTGGCTACGACGGGATT
# B19: AACAUAC (DNA:RNA)
# RNA: B16 RNA with G25A, U26A, G29U, C30A, G31C
# DNA 1: CAATCTGAATTCCGGTCTCCC
# DNA 2: TGGTGGCTACGACGGGATT
# B20: UAAGACA (DNA:RNA)
# RNA: B1 RNA with G26A, C28G, U29A, U30C, C31A
# DNA 1: CAATCTGAATTCCGGTCTCCC
# DNA 2: TGGTGGCTACGACGGGATT
# B21: GACAGUU (DNA:RNA)
# RNA: B16 RNA with U26A, C30U, G31U
# DNA 1: CAATCTGAATTCCGGTCTCCC
# DNA 2: TGGTGGCTACGACGGGATT
# B22: UGCUUUU (DNA:RNA)
# RNA: B1 RNA with A27C, C28U, C31U
# DNA 1: CAATCTGAATTCCGGTCTCCC
# DNA 2: TGGTGGCTACGACGGGATT
# B23: CGAGAAA (DNA:RNA)
# RNA: B1 RNA with U25C, C28G, U29A, U30A, C31A
# DNA 1: CAATCTGAATTCCGGTCTCCC
# DNA 2: TGGTGGCTACGACGGGATT
# B24: CACCAGA (DNA:RNA)
# RNA: B16 RNA with G25C, U26A, A28C, G29A, C30G, G31A
# DNA 1: CAATCTGAATTCCGGTCTCCC
# DNA 2: TGGTGGCTACGACGGGATT
# B25: UCCUCUU (DNA:RNA)
# RNA: B1 RNA with G26C, A27C, C28U, U29C, C31U
# DNA 1: CAATCTGAATTCCGGTCTCCC
# DNA 2: TGGTGGCTACGACGGGATT
# B26: UGUGAUG (DNA:RNA)
# RNA: B1 RNA with A27U, C28G, U29A, C31G
# DNA 1: CAATCTGAATTCCGGTCTCCC
# DNA 2: TGGTGGCTACGACGGGATT
# B27: UAUGAAG (DNA:RNA)
# RNA: B16 RNA with G25U, U26A, C27U, A28G, G29A, C30A
# DNA 1: CAATCTGAATTCCGGTCTCCC
# DNA 2: TGGTGGCTACGACGGGATT
# B28: GCACCUC (DNA:RNA)
# RNA: B1 RNA with U25G, G26C, U29C
# DNA 1: CAATCTGAATTCCGGTCTCCC
# DNA 2: TGGTGGCTACGACGGGATT
# B29: CACACGG (DNA:RNA)
# RNA: B16 RNA with G25C, U26A, G29C, C30G
# DNA 1: CAATCTGAATTCCGGTCTCCC
# DNA 2: TGGTGGCTACGACGGGATT
# B30: UAACUAA (DNA:RNA)
# RNA: B1 RNA with G26A, U30A, C31A
# DNA 1: CAATCTGAATTCCGGTCTCCC
# DNA 2: TGGTGGCTACGACGGGATT
# B31: CUUACCU (DNA:RNA)
# RNA: B16 RNA with G25C, C27U, G29C, G31U
# DNA 1: CAATCTGAATTCCGGTCTCCC
# DNA 2: TGGTGGCTACGACGGGATT
# Molecular target: T1, RBFOX1 RRM
# Assay: EMSA; HiTS-Eq, 1 nM pool, 10 min; buffer printed only for the single-RNA assays: 10 mM Tris pH 7.5, 150 mM NaCl, 3.4 mM EDTA, 0.001% NP-40, 30 C
# Settings: tags: His6 N-terminal (pET28a); label: 5' 32P
# Summary of the method: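 Purified wild-type or mutant RbFox RRM at increasing concentrations was equilibrated with 1 nM of 5′-radiolabelled RNA carrying 7 randomized nucleotides for 10 min in 50 µL. Unbound RNA was separated by 8% native PAGE and sequenced. Relative association constants came from read-count changes of each RNA species compared with the control reaction, normalised to the cognate motif.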
row,Binder,binding signal
1,B1,0.0183 KA relative to UGCAUGU
2,B2,0.0144 KA relative to UGCAUGU
3,B3,0.0185 KA relative to UGCAUGU
4,B4,0.011 KA relative to UGCAUGU
5,B5,0.00511 KA relative to UGCAUGU
6,B6,0.0197 KA relative to UGCAUGU
7,B7,0.0111 KA relative to UGCAUGU
8,B8,0.0141 KA relative to UGCAUGU
9,B9,0.000976 KA relative to UGCAUGU
10,B10,0.0124 KA relative to UGCAUGU
11,B11,0.0076 KA relative to UGCAUGU
12,B12,0.00115 KA relative to UGCAUGU
13,B13,0.00931 KA relative to UGCAUGU
14,B14,0.000842 KA relative to UGCAUGU
15,B15,0.0106 KA relative to UGCAUGU
16,B16,0.0134 KA relative to UGCAUGU

row,Binder,binding signal
1,B17,0.0181 KA relative to UGCAUGU
2,B18,0.0105 KA relative to UGCAUGU
3,B19,0.00019 KA relative to UGCAUGU
4,B20,0.00359 KA relative to UGCAUGU
5,B21,0.00923 KA relative to UGCAUGU
6,B22,0.0211 KA relative to UGCAUGU
7,B23,0.00724 KA relative to UGCAUGU
8,B24,0.00544 KA relative to UGCAUGU
9,B25,0.00411 KA relative to UGCAUGU
10,B26,0.0303 KA relative to UGCAUGU
11,B27,0.0167 KA relative to UGCAUGU
12,B28,0.0127 KA relative to UGCAUGU
13,B29,0.00433 KA relative to UGCAUGU
14,B30,0.00462 KA relative to UGCAUGU
15,B31,0.00249 KA relative to UGCAUGU
